SMILES strings stand for the structures. About 1,700 (3.3%) of roughly 52,000 compounds were called active. No stated cut-off is given here; in the data, active means survival mostly below about 52% (no sharp cut-off); inactive means mostly above about 56%. The list shows a part of the results.

This passage reports survival results from PubChem BioAssay AID463173 (ICCB-Longwood Screening Facility, Harvard Medical School, 2010).

For the assay, the system named is Wild type. Kind of assay: S. aureus survival, RN4220 and DeltatarO strains – OD600, teichoic acid synthesis inhibitors, primary screen (AID 463173). The following applies: S. aureus RN4220 wild type/DeltatarO growth, OD600, 18 h, hits give low values, screened at 18.75 µg/mL (by protocol).
Regarding `Cc1ccc(CN2CCCn3nc(C(=O)NCc4ccc(OC(C)C)cc4)cc3C2=O)cc1`, the survival is inactive: 84%. Next, `CSc1cccc(NC(=O)CC(c2cccs2)N2Cc3ccccc3C2=O)c1` (stereo unspecified): inactive: 118%; `COc1cc(-c2noc(CN3CCN(c4cccc(Cl)c4)CC3)n2)cc(OC)c1OC`: inactive: 81%. Then `CCOc1ccccc1NC(=O)N1CCN(C)c2ncccc21`, with inactive: 75%. Next, `Cc1ccc(NC(=O)CSc2n[nH]c(-c3ccc(F)cc3)n2)cc1F`: inactive: 121%. For the compound `CCc1ccc2c(c1)c1nnc(SCC(=O)NC3CCCCC3C)nc1n2C` (stereo unspecified), the survival was inactive: 108%. Take `CCOC(=O)c1cccc(NC(=O)c2ccc3nc(C(C)C)oc3c2)c1`: the survival was inactive: 93%. Then `COc1ccc2nc(NC(=O)c3nc(S(=O)(=O)Cc4ccccc4)ncc3Cl)sc2c1`, with inactive: 87%; and `CSc1ccc(CCNC(=O)CCc2c(C)nc3c(c(C)nn3-c3ccc(C)c(C)c3)c2C)cc1`, with inactive: 77%. Then `Cc1cc2nc(-c3ccc(SCC#N)nc3)[nH]c2cc1C`, with inactive: 123%.

For `Cc1ccc(CN2C(=O)CN(C3CCC(C)CC3)C(=O)C2c2ccc(F)cc2)cc1` (stereo unspecified), the survival was inactive: 119%. In the case of `CCC(C(=O)Nc1nnc2n1CCS2)c1ccccc1` (stereo unspecified), the survival was inactive: 66%. Next, `O=C(Nc1cccc(Cl)c1Cl)c1cc2nc(-c3ccc(Cl)cc3)cc(C(F)(F)F)n2n1`: inactive: 65%; `CCCN(CCC)CCNC(=O)c1cc2c(-c3ccc(Cl)cc3)nn(C)c2s1`: inactive: 81%; `NS(=O)(=O)c1ccc(NC(=O)/C=C/C(=O)O)cc1`: inactive: 106%. Next, `COc1ccc(Cn2c(=O)n(-c3ccccc3C)c(=O)c3c4c(sc32)CN(C(C)=O)CC4)cc1`: inactive: 76%; `CC(C)CC(=O)Nc1ccc2nc(SCC(=O)N3CCCC3)sc2c1`: inactive: 88%.

With `COc1ccc(NC(=O)N2CCc3c(sc4c3CCCC4)C2c2ccccc2OC)cc1` (stereo unspecified), the survival is inactive: 81%. Next, `Cc1ccc2c(c1)N(CC(=O)NC(C)(C)C)C(=O)C(C)O2` (stereo unspecified): inactive: 97%; `COc1ccc2[nH]c(=O)c(CN(C3CCCC3)S(=O)(=O)c3cccc4nsnc34)cc2c1`: inactive: 95%; `Cc1ccc(NC(=O)CCn2nc(C)c(S(=O)(=O)N3CCCCC3)c2C)cc1Cl`: inactive: 134%. Next, `CCOc1ccc(N(CC(=O)Nc2cc(C)ccc2C)S(=O)(=O)c2c(C)[nH]c(=O)[nH]c2=O)cc1`: inactive: 74%; `CCOC(=O)c1c(C)sc(-c2c(-c3cc(C)ccc3C)[nH]c3c2c(=O)n(C)c(=O)n3C)c1O`: inactive: 98%.

As for `CC1(C)C(=O)NCCN1C(=O)CCC(=O)O`, the survival is inactive: 93%.

For `CCN(c1ccc(C)cc1)S(=O)(=O)c1nnc(NC(=O)C2CCCCC2)s1`, the survival was inactive: 118%. Regarding `Cc1ccc(C)c(CN2C(=O)c3ccccc3S(=O)(=O)c3ccc(C(=O)N4CCc5ccccc54)cc32)c1`, the survival is inactive: 82%. Next, `Cc1ccc(OCC(=O)NCC(c2ccc(Cl)cc2)N2CCCCC2)cc1` (stereo unspecified): inactive: 83%. As for `CCCNC(=O)CSc1nc2ccccc2nc1Cc1ccc(Cl)cc1`, the survival is inactive: 91%. Then `CCC1=Nc2cc(C(=O)NCC(C)c3ccccc3)ccc2Sc2ccc(C)cc21` (stereo unspecified), with inactive: 77%. Turning to `Cc1ccc(CCNC(=O)c2cn(C)c3ccc(S(=O)(=O)N(C)C4CCCCC4)cc3c2=O)cc1`, the survival was inactive: 93%. Then `CCn1c(CNC(=O)c2ccc(OC)cc2)nnc1SCC(=O)Nc1ccccc1`, with inactive: 122%; and `COC(=O)c1ccc(NC(=O)CCc2c(C)nc3c(-c4ccccc4)c(C)nn3c2C)cc1`, with inactive: 75%; and `C=CCn1c(O)c(CN2CCN(Cc3ccccc3)CC2)c(C)c(C#N)c1=O`, with inactive: 113%. Next, `COc1ccc(-n2c(C)c(C(C)=O)c3cc(OC(=O)c4ccc(C)cc4)ccc32)cc1`: inactive: 73%; `CCOC(=O)c1ccc(OCC2c3cc(OC)c(OC)cc3CCN2C(=O)c2ccc(S(=O)(=O)N3CCCC3)cc2)cc1` (stereo unspecified): inactive: 70%. Then `COc1cccc(CSc2nnc(-c3ccc(F)cc3)o2)c1`, with inactive: 113%; and `Cc1ccc(Cn2cc(C(=O)c3ccc(F)cc3)c(=O)c3cc4c(cc32)OCO4)cc1`, with inactive: 73%; and `COc1ccc(CNS(=O)(=O)c2cc3c(cc2C)N(C)CCO3)cc1`, with inactive: 87%. For `CCOC(=O)Cn1c(=O)n(CC2CCCO2)c2nc(-c3ccccc3F)nc(C(N)=O)c21` (stereo unspecified), the survival is inactive: 57%. Next, `Cc1cccc(NC(=O)c2cc(S(=O)(=O)NCc3ccc4c(c3)OCO4)ccc2F)c1C`: inactive: 78%; `CCn1nnc2cc(C(=O)Nc3cccc(Cl)c3C)ccc21`: inactive: 75%; `COc1ccc(Cn2c(CNS(=O)(=O)c3ccc(C)c(C)c3)nc3cccnc32)cc1`: active: -1%. Take `O=C(NCc1ccc2c(c1)CCN2C(=O)c1ccccc1)Nc1cc(F)ccc1F`: the survival was inactive: 113%. Next, `CCOC(=O)Cc1ccc(NC(=O)Nc2ccccc2OCc2cc(=O)n3ccccc3n2)cc1`: inactive: 75%.

For the compound `COc1ccc(C)cc1S(=O)(=O)NCC(c1cccs1)S(=O)(=O)c1ccc(C)cc1` (stereo unspecified), the survival was inactive: 73%. Then `CC(Oc1ccc(F)cc1)C(=O)Nc1nc(-c2ccc(F)cc2)ns1` (stereo unspecified), with active: -1%; and `CCN1CCN(c2ncnc3c2cnn3-c2ccc(C)c(Cl)c2)CC1`, with inactive: 123%.

With `COc1ccc(-c2noc(-c3ccc(N4CCCC4)c([N+](=O)[O-])c3)n2)cc1`, the survival was inactive: 119%.

As for `COc1ccc(-c2nc3scc(CCNS(=O)(=O)c4ccccc4F)n3n2)cc1`, the survival was inactive: 57%. Next, `CCCCc1nn2c(=O)cc(COC(=O)c3cccc(NC(=O)COc4ccccc4)c3)nc2s1`: inactive: 89%; `Cc1ccc(C2=NN(CC(=O)NCCCN(CC(C)C)CC(C)C)C(=O)CC2)cc1`: inactive: 84%. Next, `O=C(NC1CCCCCC1)C1CCN(C(=O)N2CCOc3ccc(Cl)cc32)CC1`: inactive: 84%; `Cc1cc(/C=C(\C#N)C(=O)N2CCc3ccccc3C2)c(C)n1C`: inactive: 105%. Next, `CCOCCCNC(=O)c1ccc2c(c1)NC(=O)C(CS(=O)(=O)Cc1ccc(F)cc1Cl)N2` (stereo unspecified): inactive: 85%. In the case of `Cc1cc2[nH]c(=O)c(=O)[nH]c2cc1S(=O)(=O)NCc1ccc(F)cc1`, the survival was inactive: 121%. Next, `CC(OC(=O)C1CCCCC1)c1nc2ccccc2[nH]1` (stereo unspecified): inactive: 116%.
